Reference: the supplement of paper PMC7826260
The list shows a part of the results. The data describe in vitro nicking of single-stranded DNA by Rep domains (1 h at 37 °C, 3 µM enzyme); the outer parts of the 90-letter strands are left off. Numbers give uncut DNA relative to the enzyme-free pool, as log2; uncut sequences lie near 0, cut ones below; no hit call is given. Shares of all reads are compared, so uncut sequences can rise above 0 when many others are cut.

These sequences were tested on T1, Rep nickase domain of tomato golden mosaic virus (assay: uncleaved DNA left, log2 of reads against the no-enzyme library (log2 ratio); higher = less cleavage (more negative = more Rep cleavage of the k-mer); sequences stand for … in CTCGTCCG…ACCGGAGA).
T1 sequence (protein, residues 1-124, tag omitted): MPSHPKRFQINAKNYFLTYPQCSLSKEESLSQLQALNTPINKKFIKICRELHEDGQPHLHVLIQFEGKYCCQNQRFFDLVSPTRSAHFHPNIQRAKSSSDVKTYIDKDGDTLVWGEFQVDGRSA
Experimental: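 A pool of 90-nt single-stranded DNAs with seven random bases just before the constant AC of the nick site (name = the seven bases) was cut by 3 µM recombinant His6-SUMO-tagged Rep nickase domain (300 nM DNA, 50 mM HEPES pH 8.0, 50 mM NaCl, 1 mM MnCl2, 1 h, 37 °C, three replicates). Uncut DNA was amplified and sequenced.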
CTGCAAA was tested, and the “uncleaved DNA left (log2)” value was -0.0555. AGCGACT was tested, and the “uncleaved DNA left (log2)” value was 0.12. In the case of GGATCGA, the “uncleaved DNA left (log2)” value is reported as 0.038. With CCAGTAG the “uncleaved DNA left (log2)” value was 0.113. For TGTCACT, the “uncleaved DNA left (log2)” value was -0.0711. With ACCTCAA the “uncleaved DNA left (log2)” value was 0.107. For GATACCC, the “uncleaved DNA left (log2)” value was 0.028. For GTCCCGG, the “uncleaved DNA left (log2)” value was 0.139. GCCTTTG was tested, and the “uncleaved DNA left (log2)” value was 0.0276. CGCCTAA was tested, and the “uncleaved DNA left (log2)” value was -0.125. In the case of AGATCTG, the “uncleaved DNA left (log2)” value is reported as 0.0341. CCCAACT was tested, and the “uncleaved DNA left (log2)” value was -0.116. GACCTTG was tested, and the “uncleaved DNA left (log2)” value was 0.0944. GTACCAT was tested, and the “uncleaved DNA left (log2)” value was 0.0677. With TTACATA the “uncleaved DNA left (log2)” value was -0.0864. For CCCTCGA, the “uncleaved DNA left (log2)” value was -0.0394. For TGATACT, the “uncleaved DNA left (log2)” value was -0.528. In the case of GTCTTCA, the “uncleaved DNA left (log2)” value is reported as 0.109. For TGCGGCA, the “uncleaved DNA left (log2)” value was 0.0261. In the case of CGGTGCG, the “uncleaved DNA left (log2)” value is reported as -0.262. For GCTCGGC, the “uncleaved DNA left (log2)” value was -0.0728. With GTAACCT the “uncleaved DNA left (log2)” value was 0.0455. For CTATGCA, the “uncleaved DNA left (log2)” value was -0.0371. For CTACGAA, the “uncleaved DNA left (log2)” value was 0.141. GTGGGAC was tested, and the “uncleaved DNA left (log2)” value was 0.166. For CCGTGCG, the “uncleaved DNA left (log2)” value was -0.0828. With CAATTTG the “uncleaved DNA left (log2)” value was -0.0227. For GCTCGGA, the “uncleaved DNA left (log2)” value was 0.113. TACCAAA was tested, and the “uncleaved DNA left (log2)” value was -0.0172. In the case of CACGCGG, the “uncleaved DNA left (log2)” value is reported as 0.0677. For GACGGAA, the “uncleaved DNA left (log2)” value was 0.0782. With ACCTCTA the “uncleaved DNA left (log2)” value was 0.0824. With TACCTGC the “uncleaved DNA left (log2)” value was -0.192. For TCCTTAT, the “uncleaved DNA left (log2)” value was -0.119. TCACGTT was tested, and the “uncleaved DNA left (log2)” value was -0.243. In the case of TATATGG, the “uncleaved DNA left (log2)” value is reported as 0.0763. With GGCAAAG the “uncleaved DNA left (log2)” value was 0.258. TTGCGAC was tested, and the “uncleaved DNA left (log2)” value was -0.0488. In the case of TGCGGCT, the “uncleaved DNA left (log2)” value is reported as 0.0161. In the case of TCTTCTA, the “uncleaved DNA left (log2)” value is reported as 0.0303.
